Source: patent US20170368138A1 (published 2017)

How the values were obtained:
RF/6A = experiment: flow cytometry, cell binding; monkey RF/6A cells
U87MG = experiment: flow cytometry, cell binding; human U87MG cells
CV-1 = experiment: flow cytometry, cell binding; monkey CV-1 cells

Kd (RF/6A): 0.5 nM | Kd (U87MG): 1.6 nM | Kd (CV-1): 1.5 nM
B1: NOD201 (Fc fusion)
chain: GCPRPRGDNPPLTCSQDSDCLAGCVCGPNGFCG[gap - human IgG1 Fc with changes]
